The RNAGym collection of RNA variant scans (doi:10.7554/elife.90254)
The source gives no read counts; variants with many changes may rest on few reads.

B1: LINE1-full (parent)
chain: UACGUAGGUGGUUUUCCCCUGAUAGUGCUAAGGGGGCCUGGAAGUUUGGACUGGGCAGAGCUCAACACAGCGUGGCAAAGUGGCUGUGGCUAGACUGCCUCUCUGGAUUCCUCGUCACUCAGCAGGGCAUCUCUGAGAGAAAUGCC

Variants of: B1
Experiment: self-cleavage, relative activity (ratio to wild type); higher = more cleavage; in vitro, sequencing; the parent is a self-cleaving ribozyme

| Variant | self-cleavage |
| --- | --- |
| U12C U26A A107G | 1.44 |
| U45A G55A C98G | 0.05 |
| U62A G83U U119C | 0.03 |
| C3U C66U U132C | 0.13 |
| U12C U62A G88A | 0 |
| U14C A42G A50G U104C G126U C146A | 1.84 |
| U39A A42G A57G U96C U109A A129U | 0.66 |
| U26G A79U U115C A129U A138G | 2.9 |
| U39A A42G A57U U73C U81C U109A U134C | 0 |
| U45A U130C A140U | 0.99 |
| A43U A64G A78G U102A | 0.25 |
| G4A A67C A77U U108C | 0.12 |
| G35A A77U G93U | 0.01 |
| U13C U14C A64U A92U U96C G114A | 0.2 |
| U62C G89C U112C | 0.01 |
| U20A U26C U62C | 0.14 |
| A43G G75A A94C | 0.05 |
| G33A U115A A129G | 0.97 |
| U39C A64G A65G A77G G93A | 0 |
| C71A U91C U100G U108A | 0.02 |
| C3A U46C C146U | 1.72 |
| U20C A107G U119C A124U A136U | 0.84 |
| U14C U85C A107G | 0.39 |
| A2G U62A A107G C120U | 0 |

| Variant | self-cleavage |
| --- | --- |
| A94G C99U U119C U132A | 0.13 |
| U15C A64U A107G U134C | 0.55 |
| A42G U52G U62C G83A A141G | 0.32 |
| U5C U87C G93U | 0.07 |
| U45C A117G C128G | 0.96 |
| U23C U46C U132C | 2.22 |
| A129G U134A A138U | 1.55 |
| C3U U15C U62C A64G | 0.2 |
| U46A C123A U143A | 1.3 |
| U9C U13C A31G U100C | 1.67 |
| U1A U9C U39A U62C | 0.18 |
| A6U U26C U102A G127C | 0.44 |
| A2U G40A A69G | 0.2 |
| U15C U46C U62C C146U | 0.12 |
| C3G U13C A124U | 0 |
| G27A G97A A129G | 0.08 |
| A43U A94G A129G | 0.66 |
| A57U A78G A121C G125U | 0.02 |
| A78U G97U A129U | 0.07 |
| U14C A22U A92U A140G | 0.33 |
| G11A U13C A77G G93U U96A | 0.12 |
| A67G U112C U115A A141G | 0.41 |
| U39C C84U U134C A140G | 0.14 |
| A43U U85A U119C | 0.14 |

| Variant | self-cleavage |
| --- | --- |
| A57U A77G A141G | 0.18 |
| U96A C103A A121G G125A | 0.07 |
| U29C A57G U134C | 1.38 |
| A65U U100C U132C A138G | 0.3 |
| A30U U73C A77G C84U U96C | 0.22 |
| U12G A42G G60A | 0 |
| U45A A67U G106A | 0.11 |
| U14C A24U U47A A64G U81A | 0.53 |
| A57U A77G A94G G97A | 0 |
| U15A U46C U112C | 0.38 |
| G21A A57U A64U A67G | 0.05 |
| A22G G97A A142G | 0.05 |
| U14A U52G A92G A138G | 0 |
| U39C A79U A124U U134C A141G | 1.55 |
| A43G G53A U115C | 1.6 |
| U46A U87C U130A | 0.19 |
| A43G A57G C101U | 0.59 |
| U26C U115C A117G | 2.76 |
| A69U A121U A129G | 0.05 |
| U9C A50G A141G | 1.43 |
| U1A A57U G74A A77G | 0.17 |
| A24G A30U U81C A140G | 1.08 |
| U20C U29C C95A A129U | 0.08 |
| C19U A31U G82A A94G U104C C110U | 0.11 |

| Variant | self-cleavage |
| --- | --- |
| A43U U52A U112C | 2.65 |
| A31G U47C A57G A64U U109C | 1 |
| C56U A79U U100C U115C | 0.96 |
| U20A A67G C76U U109C A129U | 0.31 |
| U12G U96A U134G A140G | 0.21 |
| U12C A69U U73A U132C | 0.15 |
| A78G A94G G97U A117U | 0.04 |
| A2U A77G U112A | 1.79 |
| U1C A30G A67G | 0 |
| G8C G35A U39C U73A A141G | 0.43 |
| U23A A30U A117G | 1.08 |
| U23C A57G G60A U130A | 0 |
| U46C A79U U130C | 1.15 |
| U62C A65U U87A A140G | 0.08 |
| A24U A64C U73G C146U | 0.33 |
| G32A G36A A69G U73C G93U | 0.03 |
| G35C U45C G75A U143C | 1.06 |
| U29A U39A A94G C113U U119C U132C A136G | 0.16 |
| U20A U104C U112C U134A U143C | 0 |
| A31G G35U A79G A94G G125U A136G | 0.32 |
| C3U A30G U96G | 0 |
| U5A A42G A142G | 1.35 |
| U46C A79G U87A C95U U96A | 0.07 |
| U15A A30U U96C | 0.3 |

| Variant | self-cleavage |
| --- | --- |
| U20C U62C U100C U115C | 0 |
| A59C U108C U112A | 1.25 |
| U39G U46A A69U U115C | 0 |
| A50G U62C A77U | 0.13 |
| U20G A65C U102C | 0.15 |
| U62C U134A A141G | 0.04 |
| C84U U109A U130C | 0.15 |
| A22G G33A U81C U91C | 0 |
| U14C A77U A107G C123A U132C | 0.68 |
| A42G A50G A57U A117C U134A | 0 |
| U14C U91A U100C C118U A124G | 0.14 |
| A65G U109A A141G | 0.11 |
| U29G A50G A77G | 1.84 |
| U12C U26C U73A | 1.55 |
| U108C U109C A138G | 0.94 |
| A24G U91A A136G A138G | 0.98 |
| G48U U96A U100C | 0.07 |
| A24G A94G A136G A138G | 0.71 |
| U14A A67C U109A | 0 |
| A31G A57G A107G U115C | 0 |
| A65G U73A U130C | 0.12 |
| A2G U14C U20C A124U | 0.27 |
| U14A U102C C123A A124U | 1.41 |
| U52C U73C U104C | 0 |

| Variant | self-cleavage |
| --- | --- |
| U15C U26C U85C A136U A141G | 0.88 |
| U1C A2G A141G | 0.51 |
| U26C G49A A78G U96C A136U | 0.13 |
| A59G A65G U96A A138G | 0 |
| G40U U45A G70A U87C | 0.01 |
| U13C A42U C99A A121U | 0.19 |
| G34A G49U U62C | 0.04 |
| U5A U23A G35U | 1.36 |
| A6G U45C G58U | 0.22 |
| U26A U47C A136G | 1.48 |
| A2G C66U A67G | 0 |
| C19U G32A U45C U85C A107G U143C | 0 |
| U46C A69C A138G | 0 |
| U15A A50U U115C | 1.64 |
| U1A C17A U104C | 1.12 |
| A59U U104A U109C A136G | 0.71 |
| U62C G97A A140G | 0.04 |
| A31U C101U A136G | 1.25 |
| U47A U52A G135A | 1.19 |
| G82A U102C U112C C146U | 2.22 |
| A24U A69G U112C | 0.31 |
| A64C U87G G88U C95U | 0.04 |
| U115A A140G A141G | 1.36 |
| U45C U73A C110A C118A | 1.25 |

| Variant | self-cleavage |
| --- | --- |
| C19U G35A U85C U87C C123U | 0.02 |
| U12G U96A U130C | 0.5 |
| U47G G93U U112A A138U | 0.02 |
| U5C U14C A78G G86A U91A | 0.26 |
| U13C A22U G36U U108C | 1.63 |
| U20C G35A A142G | 0.87 |
| G41U A64G U81C A124G | 0.08 |
| A22U A92G U96C | 0.25 |
| U23C C37A U81C | 0.93 |
| U1C A43G A50U U115C | 0.62 |
| A57U U91A U102G G105A C113U | 0.02 |
| A50C C68A U81A A124U U130G | 0 |
| U29A C61A A69C | 0.06 |
| A22G U62A A67G | 0.08 |
| U15C U26G A77U | 1.15 |
| U12G U85G U100C | 0.61 |
| U46C A57U A67U U108C | 0 |
| U9C U13C U73C | 0.97 |
| U20C G48U U143G | 1.88 |
| A67G A92U G114A | 0.17 |
| C19U U26A A77U | 0.73 |
| A6C G34A G75A U100C | 1.29 |
| A78G C99U U132C A138G | 0.85 |
